According to PubChem BioAssay AID651820 (National Center for Advancing Translational Sciences (NCATS), 2012):
About 12,000 (3.5%) of roughly 340,000 compounds were called active. Inconclusive results, whose numbers are uncertain, are shown with a selection of clear calls. Calls come from the whole dose curve; as a rule, active = well fitted inhibition curve with a large enough effect; inconclusive = small, poorly fitted or top-dose-only effect, or another doubt; inactive = no such curve, though single readings can be large or run the other way. Potencies of inconclusive entries are left out as doubtful fits.

Experiment: qHTS Assay for Inhibitors of Hepatitis C Virus (HCV)
Settings: Huh7.5.1 HCVcc-Cre (HCVcc is cell-culture hepatitis C virus) infection, luciferase reporter, 44 h; activity change, negative = inhibition: at 41.8 µM (top of the series)
Summary of the method: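 Antiviral activity was scored by luciferase reporter output from cells infected with HCVcc-Cre (~0.5 moi) in presence of compound, 44 h infection period, cells seeded 1,000/well 4 h prior.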
% is set by controls: 0 for no effect and ±100 for the full control effect; potency is the fitted concentration of half-maximal effect; tags give direction and shape of the fitted curve.

Question: Which Potency does the source give for COc1cccc(N2CCN(C(=O)C3C4C=CC5(CN(Cc6ccccc6Cl)C(=O)C35)O4)CC2)c1 (centres undefined) here?
Answer: The Potency was inconclusive [inhibitor, single point].

Question: Which Potency does the source give for COc1ccc(C(=O)NC(=S)Nc2nc(-c3ccc(OC)c(Br)c3)cs2)cc1Br here?
Answer: The Potency was inconclusive [inhibitor, partial curve].

Question: For CNC(=O)c1c(C)nn(-c2ccc(F)c(Cl)c2)c1-c1cc(C)on1, which Potency is on record?
Answer: Its Potency is inconclusive [inhibitor, partial curve, poor fit].

Question: For CCc1cccc(NS(=O)(=O)c2ccc3c(c2)NC(=O)C(C)S3)c1 (centres undefined), which Potency is on record?
Answer: The Potency was inconclusive [inhibitor, single point].

Question: For CCCCN(CC)c1nc(-c2ccncc2)nc2ccccc12, which Potency is on record?
Answer: The Potency was active: 5.62 µM.

Question: Which Potency does the source give for O=c1cc(N2CCCC2)[nH]c(=O)n1-c1ccc(Cl)cc1 here?
Answer: Its Potency is inconclusive [inhibitor, partial curve].

Question: For Cc1cc(=O)oc2cc(OC(C)C(=O)N3CCOCC3)ccc12 (centres undefined), which Potency is on record?
Answer: Its Potency is inconclusive [inhibitor, full curve].

Question: For CCCCn1c(N)c(N(C)C(=O)c2cc3c(s2)CCCCC3)c(=O)[nH]c1=O, which “activity change, negative = inhibition” value is on record?
Answer: The value was inactive: 16.1%.

Question: With Cn1cccc1CNC(=S)Nc1ccccc1F as the compound, how does the Potency read?
Answer: Its Potency is inconclusive [inhibitor, full curve].

Question: For CCCCNC(=O)COC(=O)c1c2c(nc3ccccc13)/C(=C\c1cccs1)CC2, which Potency is on record?
Answer: The Potency was active: 2.82 µM.

Question: Which Potency does the source give for O=C(c1cc(COc2ccc(F)cc2F)on1)N1CC2C[C@@H]3CC1C[C@H](C2)C3 here?
Answer: The Potency was inconclusive [inhibitor, single point].

Question: With CCOC(=O)c1ccccc1NC(=O)c1ccc2nc[nH]c2c1 as the compound, how does the Potency read?
Answer: The Potency was inconclusive [inhibitor, partial curve].

Question: With NS(=O)(=O)c1ccc(CCNC(=O)Cc2ccc(S(=O)(=O)N3CCCC3)s2)cc1 as the compound, how does the Potency read?
Answer: Its Potency is inconclusive [inhibitor, single point].

Question: With CCCC(O)(CCC)C(=O)NN(C(=O)CCl)c1ccccc1 as the compound, how does the Potency read?
Answer: Its Potency is inconclusive [inhibitor, single point].

Question: For CN(C(=O)CN1C(=O)S/C(=C\c2ccccc2Cl)C1=O)C1CCS(=O)(=O)C1 (centres undefined), which “activity change, negative = inhibition” value is on record?
Answer: The value was inactive: -11.6%.

Question: Which Potency does the source give for COC(=O)COc1ccc(S(=O)(=O)NCc2ccncc2)cc1 here?
Answer: The Potency was inconclusive [inhibitor, partial curve].

Question: Which “activity change, negative = inhibition” value does the source give for Cc1cccc(NS(=O)(=O)c2cccc([N+](=O)[O-])c2)n1 here?
Answer: The value was inactive: 17.7%.

Question: Which Potency does the source give for Cc1ccc(NC(=O)Cc2c(Cl)cccc2Cl)cc1S(=O)(=O)N(C)C here?
Answer: Its Potency is inconclusive [inhibitor, single point].

Question: With Cc1cc(OCC(=O)Nc2ccc(CN3CCOCC3)cc2)c2c(C)c(C)c(=O)oc2c1 as the compound, how does the Potency read?
Answer: Its Potency is active: 11.2 µM.
